{
  "source": "patent US20180333469A1",
  "about": "(PORTOLA PHARMACEUTICALS, published 2018)",
  "binders": {"B1": {"name": "tissue factor pathway inhibitor (TFPI) (other)", "chain": "not shown"}},
  "key": {"[1]": {"target": "T1, wild-type factor Xa (fXa) (human, UniProt P00742 235-488, 11 gamma-carboxyglutamic acid residues (Gla) in the Gla domain, residues 1-45 of SEQ ID NO. 1)", "assay": "fXa chromogenic activity assay (Spectrozyme-fXa) after 1 h incubation; fXa 1 nM, fVIIa 1 nM, TF/PCPS (2 nM TF), in the presence of the competitor SEQ ID NO: 3 at 1 nM", "method": "(§1) In this study, the interaction of the fXa derivative (SEQ ID NO: 3) with TFPI was characterized by incubating TFPI in the presence or absence of fVIIa/TF. The assay mixture contained fXa (1 nM), fXa derivative (0, 1, or 5 nM), TF/PCPS (2 nM TF), fVIIa (0 or 1 nM) and increasing concentrations of TFPI (0-12 nM). Innovin was used as the source of TF and phospholipids. After a 1 hour incubation period at room temperature, fXa activity was determined by measuring cleavage of the peptidyl substrate, Spectrozyme-fXa (100 μM), and expressed as % control activity in the absence of TFPI. […] The fXa derivative dose dependently reversed the inhibitory effect of TFPI."}, "[2]": {"target": "T1, wild-type factor Xa (fXa)", "assay": "fXa chromogenic activity assay (Spectrozyme-fXa) after 1 h incubation; fXa 1 nM, fVIIa 1 nM, TF/PCPS (2 nM TF), in the presence of the competitor SEQ ID NO: 3 at 5 nM", "method": "as §1"}, "[3]": {"target": "T1, wild-type factor Xa (fXa)", "assay": "fXa chromogenic activity assay (Spectrozyme-fXa) after 1 h incubation; fXa 1 nM, TF/PCPS (2 nM TF), no fVIIa", "method": "as §1"}, "[4]": {"target": "T1, wild-type factor Xa (fXa)", "assay": "fXa chromogenic activity assay (Spectrozyme-fXa, 100 uM) after 2 h incubation; fXa 1.0 nM", "method": "(§2) The binding kinetics was determined using two different concentrations of the fXa derivative (0.5 nM and 1.0 nM) and escalating doses of TFPI, up to about 12 nM. fXa chromogenic activity was measured following a 2 hour incubation of the reaction mixture. Residual fXa activity was measured by cleavage of the peptidyl substrate Spectrozyme-fXa (100 μM). […] Such inhibition was also significant when TFPI's concentration was at 1 nM."}, "[5]": {"target": "T1, wild-type factor Xa (fXa)", "assay": "fXa chromogenic assay, kinetic fit; FXa + TFPI + fXa derivative (FIG. 1C)"}, "[6]": {"target": "T1, wild-type factor Xa (fXa)", "assay": "fXa chromogenic activity assay (Spectrozyme-fXa, 100 uM) after 2 h incubation; fXa 1.0 nM in the presence of the competitor SEQ ID NO: 3 at 1.0 nM", "method": "(§3) The binding kinetics were determined using three different concentrations of the fXa derivative (0, 1 nM, and 5 nM) and escalating doses of TFPI, up to about 12 nM. fXa chromogenic activity was measured following a 2 hour incubation of fXa (1 nM). Residual fXa activity was measured by cleavage of the peptidyl substrate Spectrozyme-fXa (100 μM)."}, "[7]": {"target": "T2, fXa derivative (SEQ ID NO: 3) (human, UniProt P00742 80-179; P00742 235-488)", "T2 construct": "Prep 1 and Prep 2 are two preparations of the same molecule; also called fXa derivative Prep 1; fXa derivative Prep 2", "assay": "fXa chromogenic assay, kinetic fit of the reversal of TFPI inhibition; FXa + TFPI + fXa derivative (FIG. 1C)"}, "[8]": {"target": "T2, fXa derivative (SEQ ID NO: 3)", "assay": "SPR, Biacore 3000, fXa derivative immobilized on CM-5 chip", "method": "A few major plasma proteins, including tissue factor pathway inhibitor (TFPI), antithrombin III (ATIII), α-2-macroglobulin, α-1-antitrypsin, factor VII (fVII), factor X (fX), prothrombin, and factor V (fV), were tested for their binding affinity to a wild-type factor Xa (fXa) and two individual preparations (Prep 1 and Prep 2) of the fXa derivative (SEQ ID NO: 3). The binding experiment was conducted with a Biacore® 3000 with the fXa derivative immobilized on a CM-5 sensor chip according to manufacturer's instruction."}, "[9]": {"target": "T1, wild-type factor Xa (fXa)", "assay": "fXa chromogenic activity assay (Spectrozyme-fXa, 100 uM) after 2 h incubation; fXa 0.5 nM", "method": "as §2"}, "[10]": {"target": "T1, wild-type factor Xa (fXa)", "assay": "fXa chromogenic activity assay (Spectrozyme-fXa) after 1 h incubation; fXa 1 nM, fVIIa 1 nM, TF/PCPS (2 nM TF)", "method": "as §1"}, "[11]": {"target": "T1, wild-type factor Xa (fXa)", "assay": "fXa chromogenic assay, kinetic fit; FXa + TFPI + fXa derivative (FIG. 1D)", "method": "as §3"}, "[12]": {"target": "T1, wild-type factor Xa (fXa)", "assay": "fXa chromogenic activity assay (Spectrozyme-fXa, 100 uM) after 2 h incubation; fXa 1.0 nM in the presence of the competitor SEQ ID NO: 3 at 5.0 nM", "method": "as §3"}, "[13]": {"target": "T2, fXa derivative (SEQ ID NO: 3)", "assay": "fXa chromogenic assay, kinetic fit of the reversal of TFPI inhibition; FXa + TFPI + fXa derivative (FIG. 1D)", "method": "as §3"}, "[14]": {"target": "T1, wild-type factor Xa (fXa)", "assay": "fXa chromogenic activity assay (Spectrozyme-fXa, 100 uM) after 2 h incubation; fXa 1.0 nM, no SEQ ID NO: 3", "method": "as §3"}, "[15]": {"target": "T1, wild-type factor Xa (fXa)", "assay": "fXa chromogenic assay, kinetic fit; FXa + TFPI (FIG. 1A)"}},
  "note": "“And” between values parts separate entries of the source, which are not always exact repeats. Identical values can stand only once.",
  "data": [
    {"binder": "B1", "values": [
      {"measurement": "IC50 (read off the curve)", "setting": "[1]", "value": "~2", "unit": "nM"},
      {"measurement": "IC50 (read off the curve)", "setting": "[2]", "value": "~3", "unit": "nM"},
      {"measurement": "IC50 (read off the curve)", "setting": "[3]", "value": "~1", "unit": "nM"},
      {"measurement": "IC50 (read off the curve)", "setting": "[4]", "value": "~0.5", "unit": "nM"},
      {"measurement": "Ki", "setting": "[5]", "value": 0.026, "unit": "nM"},
      {"measurement": "IC50 (read off the curve)", "setting": "[6]", "value": "~1", "unit": "nM"},
      {"measurement": "Kd", "setting": "[7]", "value": 0.07, "unit": "nM"},
      {"measurement": "Kd", "setting": "[8]", "value": "0.64 nM and 0.7 nM"},
      {"measurement": "IC50 (read off the curve)", "setting": "[9]", "value": "~0.3", "unit": "nM"},
      {"measurement": "IC50 (read off the curve)", "setting": "[10]", "value": "~1", "unit": "nM"},
      {"measurement": "Ki", "setting": "[11]", "value": 0.033, "unit": "nM"},
      {"measurement": "IC50 (read off the curve)", "setting": "[12]", "value": "~2", "unit": "nM"},
      {"measurement": "Kd", "setting": "[13]", "value": 0.155, "unit": "nM"},
      {"measurement": "IC50 (read off the curve)", "setting": "[14]", "value": "~0.5", "unit": "nM"},
      {"measurement": "Ki", "setting": "[15]", "value": 0.021, "unit": "nM"}
    ]}
  ]
}
